# Test results as given in the supplement of paper PMC10037445.
# “And” between values parts separate entries of the source, which are not always exact repeats. Equal entries are not always repeated. Over roughly 2,900 compounds, “IRF Lucia reporter activity, fold change vs agonist alone” has its median near 0.9; the highest 2% begin near 2.8. This is one part of the list.
# Tests used:
# RAW-Dual [1] = assay: IRF Lucia reporter activity, fold change vs agonist alone; cytotoxicity flag (confluency mask): cytotoxic (confluency <70% of control); higher = enhanced IRF activity
# How it was run: (§1)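 Library stock was pin-tooled at 50 nL into 384-well plates of RAW-Dual macrophages (50,000 cells/well, DMEM), followed 1 h later by a PRR agonist, and the cells were kept at 37 °C, 5% CO2. Supernatant collected after 20 hours was read for IRF by QuantiLuc luminescence and for NF-κB by QuantiBlue absorbance at 620 nm. Reporter activity is fold change over agonist-alone wells, and a well counted as cytotoxic when its IncuCyte confluency was below 70% of agonist controls in both mask sets.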
# RAW-Dual [2] = assay: IRF Lucia reporter activity, fold change vs agonist alone; cytotoxicity flag (confluency mask): not cytotoxic; higher = enhanced IRF activity
# How it was run: as §1
# RAW-Dual [3] = assay: IRF Lucia reporter activity, fold change vs agonist alone; higher = enhanced IRF activity; conditions: cytotoxicity flag (confluency mask): not cytotoxic, agonist: MPLA (TLR4) […]
# How it was run: as §1
# [4] = agonist: 3'3'-cGAMP (STING) 10 ug/mL
# [5] = library stock concentration (final ~1000-fold dilution): 10 mM
smiles,measurement,setting,value
Cc1nc(Nc2cnn(C3CCNCC3)c2)nc2c1N(C)C(=O)c1cc3ccccc3cc1N2C (library stock concentration (final ~1000-fold dilution): 10 mM),IRF Lucia reporter activity,RAW-Dual [1]; [4],1.96
same,IRF Lucia reporter activity,RAW-Dual [1]; agonist: LPS (TLR4) 0.1 ug/mL,3.05
NC(=O)c1cnc(NCCc2ccc(O)c(Cl)c2)nc1NCc1ccccc1 (library stock concentration (final ~1000-fold dilution): 10 mM),IRF Lucia reporter activity,RAW-Dual [1]; [4],0.0146
same,IRF Lucia reporter activity,RAW-Dual [1]; agonist: LPS (TLR4) 0.1 ug/mL,0.0156
CC(C)(CNC(=O)c1cccc(-c2noc(C(F)(F)F)n2)c1)c1coc(-c2ccccc2)n1 (library stock concentration (final ~1000-fold dilution): 10 mM),IRF Lucia reporter activity,RAW-Dual [2]; [4],0.977
same,IRF Lucia reporter activity,RAW-Dual [2]; agonist: LPS (TLR4) 0.1 ug/mL,0.867
CCNC(=O)Nc1ccc(-c2nc(N3CCOCC3C)c3c(n2)C(C)(C)S(=O)(=O)C3)cc1 (stereo unspecified) (library stock concentration (final ~1000-fold dilution): 10 mM),IRF Lucia reporter activity,RAW-Dual [2]; [4],0.489
same,IRF Lucia reporter activity,RAW-Dual [2]; agonist: LPS (TLR4) 0.1 ug/mL,0.946
COc1cc2c(cc1OC)C(=O)C(CC1CCN(Cc3ccccc3)CC1)C2.Cl (stereo unspecified) (library stock concentration (final ~1000-fold dilution): 10 mM water),IRF Lucia reporter activity,RAW-Dual [2]; [4],1.14
same,IRF Lucia reporter activity,RAW-Dual [2]; agonist: LPS (TLR4) 0.1 ug/mL,0.724
COc1cc2c(cc1OC)C(=O)C(CC1CCN(Cc3ccccc3)CC1)C2.Cl (stereo unspecified),IRF Lucia reporter activity,RAW-Dual [3]; library stock concentration (final ~1000-fold dilution): 10 mM water,1.25
Cc1ccc(Nc2c(F)cccc2Cl)c(CC(=O)O)c1 (library stock concentration (final ~1000-fold dilution): 10 mM),IRF Lucia reporter activity,RAW-Dual [2]; [4],0.873
same,IRF Lucia reporter activity,RAW-Dual [2]; agonist: LPS (TLR4) 0.1 ug/mL,0.891
Cc1ccc(Nc2c(F)cccc2Cl)c(CC(=O)O)c1,IRF Lucia reporter activity,RAW-Dual [3]; [5],0.896
O=C(O)c1cc(O)c2c(c1)C(=O)c1cccc(O)c1C2=O,IRF Lucia reporter activity,RAW-Dual [3]; [5],1.03
O=C(O)c1cc(O)c2c(c1)C(=O)c1cccc(O)c1C2=O (library stock concentration (final ~1000-fold dilution): 10 mM),IRF Lucia reporter activity,RAW-Dual [2]; [4],1.01 and 0.974
same,IRF Lucia reporter activity,RAW-Dual [2]; agonist: LPS (TLR4) 0.1 ug/mL,1.09 and 1.15
CC(Oc1ccc2c(c1)OCCn1cc(-c3ncnn3C(C)C)nc1-2)C(N)=O (stereo unspecified) (library stock concentration (final ~1000-fold dilution): 10 mM),IRF Lucia reporter activity,RAW-Dual [2]; [4],0.388
same,IRF Lucia reporter activity,RAW-Dual [2]; agonist: LPS (TLR4) 0.1 ug/mL,1.76
Cl.NC1=NCC2c3ccccc3Cc3ccccc3N12 (stereo unspecified),IRF Lucia reporter activity,RAW-Dual [3]; [5],1.21
Cl.NC1=NCC2c3ccccc3Cc3ccccc3N12 (stereo unspecified) (library stock concentration (final ~1000-fold dilution): 10 mM),IRF Lucia reporter activity,RAW-Dual [2]; [4],1.09
same,IRF Lucia reporter activity,RAW-Dual [2]; agonist: LPS (TLR4) 0.1 ug/mL,1.42
O=c1cc(-c2cccc3c2Sc2ccccc2S3)oc(N2CCOCC2)c1,IRF Lucia reporter activity,RAW-Dual [3]; [5],6.25
O=c1cc(-c2cccc3c2Sc2ccccc2S3)oc(N2CCOCC2)c1 (library stock concentration (final ~1000-fold dilution): 10 mM),IRF Lucia reporter activity,RAW-Dual [2]; [4],0.647
same,IRF Lucia reporter activity,RAW-Dual [2]; agonist: LPS (TLR4) 0.1 ug/mL,5.22
CNCC(O)C(O)C(O)C(O)CO.Cc1c(Nc2ncccc2C(=O)O)cccc1C(F)(F)F (library stock concentration (final ~1000-fold dilution): 10 mM),IRF Lucia reporter activity,RAW-Dual [2]; [4],0.986
same,IRF Lucia reporter activity,RAW-Dual [2]; agonist: LPS (TLR4) 0.1 ug/mL,1.05
CNCC(O)C(O)C(O)C(O)CO.Cc1c(Nc2ncccc2C(=O)O)cccc1C(F)(F)F,IRF Lucia reporter activity,RAW-Dual [3]; [5],0.964
CC(C)NCC(O)COc1ccc(CCOCC2CC2)cc1.Cl (stereo unspecified) (library stock concentration (final ~1000-fold dilution): 10 mM),IRF Lucia reporter activity,RAW-Dual [2]; [4],0.997
same,IRF Lucia reporter activity,RAW-Dual [2]; agonist: LPS (TLR4) 0.1 ug/mL,0.947
CC(C)NCC(O)COc1ccc(CCOCC2CC2)cc1.Cl (stereo unspecified),IRF Lucia reporter activity,RAW-Dual [3]; [5],0.75
C=CC(=O)N1CCC(C2CCNc3c(C(N)=O)c(-c4ccc(Oc5ccccc5)cc4)nn32)CC1 (stereo unspecified) (library stock concentration (final ~1000-fold dilution): 10 mM),IRF Lucia reporter activity,RAW-Dual [2]; [4],0.563
same,IRF Lucia reporter activity,RAW-Dual [2]; agonist: LPS (TLR4) 0.1 ug/mL,0.593
CC(C)N(CCC(c1ccccc1)c1cc(CO)ccc1O)C(C)C (stereo unspecified),IRF Lucia reporter activity,RAW-Dual [3]; [5],0.986
CC(C)N(CCC(c1ccccc1)c1cc(CO)ccc1O)C(C)C (stereo unspecified) (library stock concentration (final ~1000-fold dilution): 10 mM),IRF Lucia reporter activity,RAW-Dual [2]; [4],0.857
same,IRF Lucia reporter activity,RAW-Dual [2]; agonist: LPS (TLR4) 0.1 ug/mL,0.982
Cc1[nH]c2ccccc2c1CCNC(=O)c1cccs1 (library stock concentration (final ~1000-fold dilution): 10 mM),IRF Lucia reporter activity,RAW-Dual [2]; [4],1.02
same,IRF Lucia reporter activity,RAW-Dual [2]; agonist: LPS (TLR4) 0.1 ug/mL,0.989
Cc1[nH]c2ccccc2c1CCNC(=O)c1cccs1,IRF Lucia reporter activity,RAW-Dual [3]; [5],1.07
COc1ccc(/C=C/C(=O)O)cc1OC (library stock concentration (final ~1000-fold dilution): 10 mM),IRF Lucia reporter activity,RAW-Dual [2]; [4],0.933
same,IRF Lucia reporter activity,RAW-Dual [2]; agonist: LPS (TLR4) 0.1 ug/mL,0.935
CC12CC3CC(C)(C1)CC(N)(C3)C2.Cl,IRF Lucia reporter activity,RAW-Dual [3]; [5],1.17
CC12CC3CC(C)(C1)CC(N)(C3)C2.Cl (library stock concentration (final ~1000-fold dilution): 10 mM),IRF Lucia reporter activity,RAW-Dual [2]; [4],1.24
same,IRF Lucia reporter activity,RAW-Dual [2]; agonist: LPS (TLR4) 0.1 ug/mL,1.01
Cc1nc2ccc(-n3ncc(C(=O)c4cc5ccccc5[nH]4)c3N)cc2[nH]1 (library stock concentration (final ~1000-fold dilution): 10 mM),IRF Lucia reporter activity,RAW-Dual [2]; [4],0.0669
same,IRF Lucia reporter activity,RAW-Dual [2]; agonist: LPS (TLR4) 0.1 ug/mL,0.752
